From PubChem BioAssay AID1240 (Sanford-Burnham Center for Chemical Genomics, 2008) come the findings set out here.

The whole screen tested about 50,000 compounds, of which about 800 (1.6%) showed an effect of 50% or more. The list shows a part of the results.

The test deals with Bcl-2-like protein 10 (Homo sapiens) (UniProt Q9HD36). As to the kind of experiment: Phenotype converters, Bcl-B/TR3 peptide binding displacement, primary biochemical FP (AID 1240).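 Further: 0% = Bcl-B with tracer peptide and DMSO and 100% = tracer peptide lacking Bcl-B.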 Conditions: GST-Bcl-B / FITC-TR3 peptide fluorescence polarization; stronger effect = higher value; compound at 3.75 mg/L. Background: Fluorescence polarisation rises when a labelled molecule tumbles more slowly, as on binding a larger partner.
Sequence of UniProt Q9HD36 (Q9HD36 whole entry, looked up): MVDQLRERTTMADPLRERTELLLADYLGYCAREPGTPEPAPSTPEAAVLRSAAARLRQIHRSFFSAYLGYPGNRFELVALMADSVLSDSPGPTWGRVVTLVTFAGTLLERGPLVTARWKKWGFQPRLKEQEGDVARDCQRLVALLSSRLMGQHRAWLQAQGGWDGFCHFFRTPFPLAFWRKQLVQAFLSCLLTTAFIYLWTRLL
Consider `CCN(CC)c1ccc(NC(=O)c2ccccc2[N+](=O)[O-])cc1`, for which the displacement is -6.6%. As for `O=C(Oc1ccc(/C=N/NS(=O)(=O)c2ccc(Cl)cc2)cc1)c1ccco1`, the displacement turned out to be 6.4%. Next, `CCOC(=O)C1=C(C)N=c2s/c(=C\c3cccc(OC)c3O)c(=O)n2C1c1ccc(OC)cc1` (configuration not stated): 9.8%; `C=CCc1cccc2cc(C(=O)Nc3ccc(NC(C)=O)cc3)c(=O)oc12`: -13.3%; `Cc1cccc(NC(=O)CC2S/C(=N\N=C\c3cccs3)NC2=O)c1C` (configuration not stated): 7%. Next, `Clc1cc2c(cc1CSc1nc3ncccc3[nH]1)OCO2`: -5.8%; `CCOc1cc(C=O)cc(I)c1OCc1ccccc1Cl`: 10.5%. Take `Cc1cccc(N2C(=O)c3ccc(NC(=O)C(c4ccccc4)c4ccccc4)cc3C2=O)c1C`: the displacement is -64.7%. As to `O=C(Nc1ccc2oc(-c3ccccc3F)nc2c1)C(Cl)(Cl)Cl`, the displacement is -12.3%. `O=C(c1cc(F)c(F)cc1Cl)N1CCN(c2ccc(Cl)cc2[N+](=O)[O-])CC1`: the displacement is -8%. Take `O=C(Nc1ccc2nn(-c3ccc(Cl)cc3)nc2c1)c1cccnc1`: the displacement was determined as 29.6%. Next, `O=C(Nc1ccc(N2C(=O)c3ccccc3C2=O)cc1Cl)c1ccc(Cl)cc1Cl`: 16.8%; `O=C(Nc1c(C(=O)N2CCCCCC2)cnn1-c1ccccc1)c1cccc(F)c1`: 0.8%.

For the compound `Cc1ccsc1/C=C(/C#N)c1nc(-c2ccc(Br)cc2)cs1`, the displacement is 132%. With `CCOC(=O)Oc1ccc2oc(=O)cc(C)c2c1`, the displacement was determined as 7.3%. For the compound `O=C(CSCc1ccc(F)cc1)Nc1ccccc1`, the displacement was found to be 16.1%. On to `CC(C)=C1C2CCC1C(C(=O)Nc1ccc(C)c(Cl)c1)C2C(=O)O` (configuration not stated), for which the displacement is -5.8%. Regarding `Nc1ccc(S(=O)(=O)N2CCCCCC2)cc1`, the displacement came out at 3%.

`CCCCCCOc1ccc(N2C(=O)CC(N3CCN(Cc4ccc5c(c4)OCO5)CC3)C2=O)cc1` (configuration not stated): the displacement stood at 27.1%.

Turning to `COc1ccc(/C=C2\SC(=S)N(CCS(=O)(=O)O)C2=O)cc1`, the displacement was found to be 3.2%. As to `COc1ccc(C(=O)/C=C/Nc2cc(Cl)cc(Cl)c2)cc1`, the displacement was 3.9%.

Take `COc1ccc(C(=O)N/C(=C\c2ccc(Cl)cc2)C(=O)NCc2ccncc2)cc1`: the displacement was 14.7%.

For the compound `COc1cccc(C2NC(=O)N(C)C(C)=C2C(=O)OC(C)C)c1OC` (configuration not stated), the displacement came to 7.9%. For the compound `Cc1c(NC(=O)c2ccc3c(c2)C(=O)N(N2C(=O)c4ccccc4C2=O)C3=O)cccc1C(=O)O`, the displacement was 1.9%.

As for `Cc1ccc(C(=O)Nc2nc(-c3ccccc3)c(C)s2)cc1`, the displacement stood at 4.1%. Next, `Cc1occc1C(=O)Nc1cccc2ccccc12`: 3.3%; `O=C(/C=C/c1cc2c(cc1Br)OCO2)c1cccs1`: -21.6%; `CCc1cc2c(=O)c(-c3nc4ccccc4s3)coc2cc1OS(C)(=O)=O`: 4.5%. Then `COc1cccc(-n2sc3c(c2=S)-c2cc(C)ccc2NC3(C)C)c1`, with 1.3%; and `CC(Nc1cc(N2CCN(CCO)CC2)ccc1[N+](=O)[O-])C12CC3CC(CC(C3)C1)C2` (configuration not stated), with 5%; and `CCOC(=O)CSc1nc2sc3c(c2c(=O)n1-c1ccccc1C)CCc1ccccc1-3`, with -6.6%. Regarding `CC(=O)N(c1ccccc1)S(=O)(=O)c1ccc(Cl)cc1`, the displacement was determined as 10.5%. `CC1CCN(CCOCCOc2cccc3ccccc23)CC1`: the displacement was determined as 0.7%.

For the compound `CCC(=O)c1ccc(N2CCN(C(=O)c3ccc(Br)cc3)CC2)c(F)c1`, the displacement was -7.2%. On to `Cc1nnc(Nc2ccccc2O)c2ccccc12`, for which the displacement was -1.6%.

On to `COC(=O)c1cccc(N2C(=O)c3ccc(C(=O)c4cccc([N+](=O)[O-])c4)cc3C2=O)c1`, for which the displacement turned out to be 7.1%. As to `Cc1ccc(N(CC(=O)NCc2ccccc2C)S(C)(=O)=O)cc1`, the displacement is -2.5%. Then `Cc1ccc(/C=C(\C#N)c2nc3ccccc3s2)cc1`, with 88.3%; and `O=C1OC(c2ccccc2Br)=N/C1=C\c1cc2c(cc1Cl)OCO2`, with 116%; and `CCN(CC)c1ccc(/C=C2\C(=O)NC(=O)N(c3cc(C)cc(C)c3)C2=O)o1`, with -62.5%. For `CC(=O)c1ccc(NC(=O)c2ccc(-c3cccc(Cl)c3C)o2)cc1`, the displacement came to 1.7%. `CCOC(=O)c1ccc(NC(=O)CN(c2ccc(C)cc2)S(=O)(=O)c2ccc(OCC)cc2)cc1`: the displacement was found to be 9.9%. As for `CCOC(=O)C1=C(C)NC(=S)NC1c1ccc(OC(=O)c2ccco2)c(OC)c1` (configuration not stated), the displacement stood at 10.8%.

For `CC(C(=O)O)N1C(=O)/C(=C/c2ccc(C(=O)O)cc2)SC1=S` (configuration not stated), the displacement was -1%. For the compound `Cc1ccc(C(=O)Nc2ccc(I)cc2)cc1[N+](=O)[O-]`, the displacement turned out to be 10.8%. Next, `CCCc1n[nH]c2c1/C(=N\O)CC(C)(C)C2`: 2.6%; `O=S1(=O)N=C(Nc2cccc(Cl)c2)c2ccccc21`: 9.5%. `O=C(Nc1ccc(C(=O)O)cc1)/C(=C/c1cccc([N+](=O)[O-])c1)NC(=O)c1ccccc1`: the displacement came to 1.7%. As to `CCCC(=O)Nc1ccc(Cl)cc1C(=O)O`, the displacement was determined as 10.7%. Then `Cc1ccc(OCCOc2ccccc2/C=C2/SC(=S)N(C)C2=O)cc1`, with 3.3%; and `C=CCOC(=O)C1=C(C)NC(C)=C(C(=O)OCC=C)C1c1ccc(O)cc1`, with 9.3%; and `COc1ccc(-c2cc(-c3ccc(OC)c(OC)c3)n[nH]2)c(O)c1`, with 11.7%.

For `COc1ccccc1NC(=O)COc1cc(C)c(Cl)c(C)c1`, the displacement was -1.6%. As to `COc1ccc(NC(=O)COc2ccc3ccccc3c2)cc1OC`, the displacement is -8.7%. Consider `CC(NS(=O)(=O)c1ccc(Br)cc1)C1C2CC3CC(C2)CC1C3` (configuration not stated), for which the displacement came to 7.9%. As for `N#C/C(=C\c1cccc(OCc2ccccc2)c1)C(N)=O`, the displacement came to 9.1%. Consider `COc1ccc(C2C=C(Nc3ccc(C)cc3)C(=O)N2c2ccc(C)cc2)cc1OC` (configuration not stated), for which the displacement was determined as 7.4%. Regarding `COc1ccc(C2CC(C(F)(F)F)n3nc(C(=O)Nc4ccc(C(C)O)cc4)c(Cl)c3N2)cc1` (configuration not stated), the displacement came to 6.2%.

With `O=[N+]([O-])c1cccc(/C=N/Nc2nnc3c(n2)[nH]c2ccccc23)c1`, the displacement was -9.1%. For the compound `COc1ccc(C/C(N)=N/OC(=O)COc2ccc(Br)c(C)c2)cc1`, the displacement is -1.7%. In the case of `Cc1nn(C(=O)COc2ccc(Cl)cc2)c(C)c1Sc1ccccc1[N+](=O)[O-]`, the displacement worked out at 5.7%. Consider `COc1ccccc1/C=C/C(=O)c1c(-c2ccccc2)c2cc(Cl)ccc2[nH]c1=O`, for which the displacement is -15.5%. As for `N#Cc1c(-c2cccc(Br)c2)c(C#N)c2nc3ccccc3n2c1N`, the displacement was found to be 109%. On to `COc1ccc(C(=O)NC(=S)Nc2ccc(I)cc2)cc1`, for which the displacement is 15.7%.

As for `O=C(c1ccc(Cl)c([N+](=O)[O-])c1)N1CCN(C/C=C/c2ccccc2)CC1`, the displacement was 8.4%. Turning to `Cc1cc(C)n2c(SCCO)nnc2n1`, the displacement is 10.6%. Regarding `COc1ccccc1N/C(=N/S(=O)(=O)c1ccccc1)c1ccccc1`, the displacement stood at 11.9%. In the case of `Cc1ccc(N=C(Nc2ccc(C)cc2)c2ccccc2)cc1`, the displacement was 20.9%. Take `O=C(COc1ccc(Br)cc1)Nc1cccc(NC(=O)c2cccc(Cl)c2)c1`: the displacement came out at 15.6%. For the compound `CCOC(=O)C1=C(C)N=c2s/c(=C\c3ccc(-c4ccccc4C(=O)O)o3)c(=O)n2C1c1cccc(OC)c1` (configuration not stated), the displacement was -23.4%. As for `CCC(=O)NC(c1ccc(N(C)C)cc1)c1ccc2cccnc2c1O` (configuration not stated), the displacement is -31.7%. Turning to `CCC(C)c1ccc(NC(=O)C2CC2)cc1` (configuration not stated), the displacement was -3.9%.

As for `Cc1ccsc1/C=C1/SC(=S)N(CCCCCC(=O)O)C1=O`, the displacement was -9.6%. For the compound `N#C/C(=C/c1ccco1)c1nc(-c2cc3ccccc3oc2=O)cs1`, the displacement was -1.2%.

As to `COC(=O)C1=C(C)N(c2ccccc2F)C(=O)/C1=C\c1sccc1C`, the displacement was found to be 7.8%. Turning to `Cc1ccc2[nH]c3nc(C)cc(C)c3c(=O)c2c1`, the displacement turned out to be 2.7%.

Turning to `Cc1ccc(C(=O)c2ccc(Br)cc2)cc1S(=O)(=O)Nc1ccc(Cl)cn1`, the displacement was -0.7%. Then `CCOC(=O)c1c(NC(=O)C2c3ccccc3Oc3ccccc32)sc(C(C)=O)c1C`, with -2.7%; and `Cc1ccc(C(C)C)c(OCC(=O)Nc2ccc(I)cc2Cl)c1`, with 0.8%.

As for `O=C1/C(=C/c2ccco2)SC(=S)N1c1ccc(F)cc1`, the displacement was 7.9%. For `CCOC(=O)C1=C(O)CCn2c1nc1ccccc12`, the displacement was found to be 9.5%.

Consider `CCN(CC)S(=O)(=O)c1ccc(Cl)c(C(=O)Nc2nnc(-c3ccccc3)s2)c1`, for which the displacement is -5.1%. Take `COc1ccccc1OCCCCOc1c(C)cccc1C`: the displacement was -11.6%. Then `Cc1ccccc1OCCOc1ccc(/C=N/n2cnnc2)cc1`, with 4.1%; and `Cc1ccc([N+](=O)[O-])cc1NC(=O)C1CC(O)CN1C(=O)Oc1ccccc1` (configuration not stated), with -9.7%; and `N#Cc1c(N2CCCCC2)ncc2cc3ccccc3nc12`, with 0.8%.

In the case of `O=C(CSc1n[nH]c(-c2ccccc2)n1)c1ccc(Cl)cc1`, the displacement was 9.4%. Next, `COc1ccccc1C1C(C(=O)OCCOc2ccccc2)=C(C)NC2=C1C(=O)CCC2` (configuration not stated): -15.6%; `O=C1c2ccc(-c3nc4ccccc4c(=O)o3)cc2C(=O)N1C1CCCCC1`: 7.3%. Next, `O=C(CCc1ccccc1)Nc1ccc2c(c1)OCCO2`: -8.4%; `C/C(=N\NC(=O)COc1ccc(Cl)cc1Cl)c1cccc([N+](=O)[O-])c1`: 29.4%. Take `Cc1ccc(-c2cc(C(=O)NCc3ccccc3)c3ccccc3n2)o1`: the displacement was 9.4%.

As for `COc1ccc(/C=C2\S/C(=N/N=C/c3ccc(OC)cc3)N(c3ccc(O)cc3)C2=O)cc1`, the displacement was found to be 14.4%. Next, `O=C(c1cccc(Cl)c1)N1CCc2ccccc21`: 5.1%; `Cc1cc2c(cc1C)CN(c1cccc(C(=O)N/N=C/c3ccc(N(C)C)cc3)c1)C2`: 7.1%; `CC(C)(C)N1C(=O)c2ccc(C(=O)Nc3cccc(I)c3)cc2C1=O`: -14.8%. For the compound `COC(=O)C1=C(C)NC(=O)NC1c1cc(Cl)c(O)c(OC)c1` (configuration not stated), the displacement was 2.8%.

As for `Nc1nc(-c2ccccc2)c(-c2ccccc2)n1N`, the displacement is -22.5%. Consider `CCN(CC)CCSc1nc(O)c(CCC(C)C)c(=O)[nH]1`, for which the displacement is -4.2%. As to `O=C(O)c1ccccc1NC(=O)C12CC3CC(CC(C3)C1)C2`, the displacement came to 6.3%.

Turning to `O=C(c1cc2n(n1)C(C(F)(F)F)CC(c1ccc(Br)cc1)N2)N1CCCC1` (configuration not stated), the displacement was -2.8%. With `CC1(C)CC(=O)C(C=NCC2CCN(C(=O)Nc3ccccc3)CC2)=C(O)C1`, the displacement is 0.4%. Regarding `Cc1cc2c(nc3s/c(=C\c4cccc(Cl)c4)c(=O)n32)c(Br)c1C`, the displacement worked out at 2.5%.

For the compound `Cc1cc(Cl)cc(Cl)c1OCCNCCO`, the displacement is -1%.

`COc1ccc(CNCc2ccccn2)cc1OC`: the displacement is -7.3%. Consider `CCOC(=O)c1c(NC(=O)c2sc3cc(C)ccc3c2Cl)sc(C(N)=O)c1C`, for which the displacement was found to be 15.9%. Then `O=C(c1ccc(OCc2ccccc2)cc1)c1coc2ccc(O)cc12`, with -9.6%.
